Laboratory results: ChEMBL document CHEMBL4888484, “Replenishing the malaria drug discovery pipeline: Screening and hit evaluation of the MMV Hit Generation Library 1 (HGL1) against asexual blood stage Plasmodium falciparum ,using a nano luciferase reporter read-out” (2022)
The campaign covered roughly 150,000 compounds. About 540 (0.36%) showed an effect of 50% or more. The list shows a part of the results.

Tested on: Plasmodium falciparum
Test: Primary screen in NF54 nanoGlo assay, in single point, at 2uM, 72h; a lower Z score goes with more inhibition
Format: functional, Erythrocyte
Details: timepoint 72 hour

Row | SMILES | % Inhibition [%] | Z score
1 | CC(C)(C)OC(=O)N1C[C@H]2CCN(C(=O)CC#N)CC[C@H]2C1 | -12 | 1.32
2 | O=C(COC(=O)COc1ccccc1)NCCc1ccccc1 | -2 | 0.18
3 | COc1ccccc1C(=O)N1CCCN(c2nc(Cc3ccccc3)nc3c2cnn3-c2ccccc2)CC1 | 8 | -1.5
4 | CC(C)n1cc(C#N)c(NC(=O)C[C@H]2CCOc3ccccc32)n1 | -9 | 1.36
5 | Cc1nc(C(F)(F)F)ncc1CN1CCC2(CC1)CNC(=O)O2 | 0 | -0.02
6 | Cc1nc(-c2nc(N(C)C)no2)c(C)s1 | -1 | 0.17
7 | CC[C@H](OC1CCCC1)C(=O)NCC1(O)CCCCC1 | -9 | 1.84
8 | Cc1n[nH]c(C)c1S(=O)(=O)N1CCCN(c2nc(C(F)(F)F)nc3ccccc23)CC1 | -7 | 0.93
9 | Cn1nc(C(C)(C)C)cc1C(=O)N1CCCCC2CCCCC21 (stereo not given) | -16 | 2.19
10 | Cn1cnc2cc(C(=O)NCCOCc3ccc(Cl)cc3)ccc2c1=O | 3 | -0.46
11 | Cc1c(CC(=O)NC[C@H]2CCOC2)c2c(n1Cc1ccccc1)CCCC2=O | -16 | 1.58
12 | CCCn1nc(C)nc1-c1ccc(-n2cccn2)cc1 | -2 | 0.34
13 | NC(=O)N1CC[C@H](NC(=O)C#Cc2ccc(C(F)(F)F)cc2)C1 | 23 | -2.34
14 | c1ccc(Cn2ccnc2CCNc2nccn3cnnc23)cc1 | -1 | 0.08
15 | COC(=O)Cn1cc(S(=O)(=O)N2CCCC2)cc1C(=O)OC | 14 | -1.6
16 | O=C(NCc1nc(CO)cs1)c1ccc(O[C@H]2CC2(F)F)cc1 | 1 | -0.21
17 | COc1ccccc1-c1onc(C)c1C(=O)NCc1cccc(Cl)c1 | -13 | 1.76
18 | CNC(=O)Nc1ccc2nc3n(c(=O)c2c1)CCCC3 | 6 | -0.71
19 | CC(C)n1ncc(C(=O)N2CCC(C)(CO)CC2)c1C(F)(F)F | 4 | -0.5
20 | Cc1cc(C)n(-c2ccc(F)cc2CN2CCN(Cc3ccccc3)[C@@H](CCO)C2)n1 | -4 | 0.72
21 | Cc1cc(C)cc(NC(=O)N[C@@H]2CNC(=O)C2)c1 | 0 | -0.01
22 | CCN(C(=O)C1CCCCC1)c1ccccc1C | -6 | 1.06

Row | SMILES | % Inhibition [%] | Z score
23 | Cc1ccc(CN2CCN(C(=O)[C@H]3CCCN(S(C)(=O)=O)CCC(=O)NCC3)CC2)cc1 | -15 | 1.99
24 | COc1ccc(C)cc1-n1c(-c2ccc(O)cc2)n[nH]c1=O | 0 | -0.03
25 | CC(=O)Nc1cccc(Nc2c(C(=O)N3CCCCCC3)cnc3nc(C)ccc23)c1 | -13 | 1.96
26 | CC(C)[C@@H]1NC(=O)[C@@H](Cc2ccc(O)cc2)NC1=O | -19 | 2.03
27 | N#Cc1ccc(S(=O)(=O)N2CCCCO2)o1 | 2 | -0.2
28 | CCC(C)NC(=O)C1CCC(c2ccccc2)N(C(=O)NCc2ccccc2)C1 (stereo not given) | -7 | 0.74
29 | C=C(C)CN1CCN(Cc2nc(C)c[nH]2)CC1 | -3 | 0.64
30 | CN1CCN(C[C@@H]2CN(Cc3nc(-c4ccccc4)no3)C[C@@H]2CO)CC1 | -16 | 3.29
31 | CCCS(=O)(=O)NC[C@H](OC)c1ccccc1OC | 11 | -1.36
32 | COc1cc(OC)c(N2C[C@@H](C(=O)NOCc3ccccc3)CC2=O)cc1Cl | -12 | 1.56
33 | Cc1cccnc1C[C@H](C)NC(=O)Cn1ccnc1C | -12 | 2.08
34 | CC[C@@](C)(C#N)NC(=O)c1cc(Cl)ccc1F | -7 | 1.27
35 | O=C(Nc1ccccc1N1CCCC1=O)c1ccc(S(=O)(=O)N2CCOCC2)cc1 | -1 | 0.12
36 | CN(C(=O)c1ccccc1OCC(N)=O)[C@H]1CCCN(Cc2ccccc2)C1 | -12 | 1.66
37 | CCS(=O)(=O)C1CN(c2ncnc3ccsc23)C1 | -1 | 0.11
38 | COC(=O)Nc1ncc(CN2CCCCC2)s1 | -6 | 0.65
39 | CCn1nccc1C(=O)Nc1ccc2c(c1)C(=O)N(C)C2=O | -4 | 0.63
40 | O=C(CCC1=Nc2cc(C(F)(F)F)ccc2S(=O)(=O)N1)NCCc1ccc(Cl)cc1 | 32 | -3.59
41 | COc1cccc(CN2CCCC[C@H]2c2ncc[nH]2)c1F | -15 | 1.36
42 | CC1(C)CCC(S(=O)(=O)Cc2coc(-c3cccs3)n2)CC1 | 1 | -0.23
43 | Cc1nc(Cn2cccc2C(=O)Nc2cc(Cl)ccc2C)no1 | 7 | -1.15
44 | Cc1nc2ccc(N(C)C(=O)CNC(=O)c3ccsc3)cc2s1 | 1 | -0.15

Row | SMILES | % Inhibition [%] | Z score
45 | CC(=O)c1sc(Cc2nc(O)cs2)nc1C | -8 | 1.09
46 | Cc1[nH]ncc1C(=O)N1CCOc2ccccc2[C@@H]1CO | -12 | 1.34
47 | CC(C)CC[C@@H](CCNCCN(C)C)c1ccc(Cl)cc1 | 90 | -10.16
48 | O=C(c1ccc(NCC2(CO)CCC2)nc1)N1CCC(N2CCOCC2)CC1 | -12 | 2.13
49 | CCN(CC)[C@H](CNC(=O)COCc1ccc(OC)cc1)Cc1ccccc1 | 2 | -0.23
50 | COc1cccc(CN2CCN(Cc3[nH]cnc3C)[C@@H]3CS(=O)(=O)C[C@@H]32)c1 | -1 | 0.21
51 | Cc1ccc2nc(NC(=O)CC[C@@H]3NC(=O)c4ccccc4NC3=O)sc2c1 | -22 | 2.84
52 | Cc1ccc(NC(=O)c2coc(CN3CCN(Cc4ccc(F)cc4F)CC3)n2)cc1C | -17 | 2.48
53 | CCc1ocnc1C(=O)N[C@H]1CCCc2occc21 | -13 | 1.3
54 | COc1cccc(Cn2cnc3c4ccccc4n(Cc4cccc(OC)c4)c3c2=O)c1 | -8 | 0.93
55 | COc1ccc(-c2nc(N3CCCCC3)nc3nn(-c4ccc(Cl)c(Cl)c4)c(N)c23)cc1OC | -13 | 2.06
56 | CCC(C)N(C(=O)c1ccccc1C(=O)N(C(C)CC)C(C)CC)C(C)CC (stereo not given) | -8 | 1.07
57 | CC(C)(C)OC(=O)N1Cc2cnc(N3CCOCC3)nc2C1 | -10 | 1.21
58 | CC1CC(C)CN(S(=O)(=O)c2ccc(C(=O)OCC(=O)N3CC(=O)Nc4ccccc43)cc2)C1 (stereo not given) | -16 | 2.58
59 | CC1(O)CCC(NC(=O)CCCc2ccccc2)CC1 (stereo not given) | -20 | 3.9
60 | Cc1cc(C)c2c(c1)NC(=O)[C@H]2CC(=O)Nn1cnnc1 | -2 | 0.34
61 | N#CCCN(Cc1ccncc1)CC1CC1 | -2 | 0.19
62 | O=C(CC1CCN(C(=O)c2cc3ccccc3[nH]2)CC1)NCc1ccc2c(c1)OCO2 | 2 | -0.19
63 | C[C@@]1(c2ncnn2-c2ccc3c(c2)OCCO3)CCCO1 | -2 | 0.31
64 | O=C(Nc1cccc(-c2nnco2)c1)c1ccc(F)cc1 | -4 | 0.57
65 | Cc1cccc(NC(=O)c2ccnc(OCC3CCOCC3)c2)n1 | -16 | 3.03
66 | Cc1noc(C)c1CCC(=O)Nc1ccc(N2CCNC(=O)C2)nc1 | 6 | -0.75

Row | SMILES | % Inhibition [%] | Z score
67 | O=C1CCC(=O)N1C[C@H](O)Cn1c2ccc(Br)cc2c2cc(Br)ccc21 | 12 | -2.27
68 | CC[C@H](C)N(C)CCNC(=O)c1cccc(F)c1 | -6 | 1.09
69 | CC(C)(C)c1cc(C(=O)Nc2ccn(C(C)(C)C(=O)O)n2)[nH]n1 | -1 | 0.18
70 | CC(NC(=O)[C@@H]1CCCO[C@H]1c1ccnn1C(C)C)c1ccc(F)cc1F (stereo not given in full) | 4 | -0.71
71 | Cc1cnc(C(=O)NCc2ccc(CN3CC(C)CC(C)C3)cc2)cn1 (stereo not given) | -15 | 2.92
72 | O=C(c1ccoc1)N1CCC(C(=O)O)(n2cnc3ccccc32)CC1 | -3 | 0.46
73 | Cc1cc(C)cc(N2CCC(N[C@H]3CCNC3=O)CC2)c1 | 0 | -0.08
74 | C[C@@H](NC(=O)NC1(C(N)=O)CCCCCC1)c1cccc2ccccc12 | -1 | 0.09
75 | COc1ccc(S(=O)(=O)N[C@H]2CCCc3cn(CC(F)(F)F)nc32)cc1 | 32 | -1.59
76 | Cc1cc2ncc(-c3nc([C@H]4CCOC(C)(C)C4)no3)c(C)n2n1 | -5 | 0.67
77 | CC1CN(C(=O)C2CCCc3sc(Nc4ccccc4)nc32)CCO1 (stereo not given) | -10 | 1.04
78 | O=C(CN1C(=O)NC2(CCOCC2)C1=O)NCc1ccc2c(c1)OCO2 | 7 | -0.78
79 | COc1cccnc1CC(=O)Nc1cc(C2CCCCC2)[nH]n1 | -9 | 1.42
80 | CCc1ccc(OCCN2CCCS2(=O)=O)cc1 | -15 | 2.05
81 | O=C(C1CCN(c2nnc3ccc(Cl)cn23)CC1)N1CCOCC1 | -11 | 1.15
82 | CCOc1ccc(S(=O)(=O)Cc2cc(C)no2)cc1 | -3 | 0.57
83 | O=C(c1cnn2c1CCCC2)N1CCN(S(=O)(=O)c2cccc(F)c2)CC1 | 0 | 0.04
84 | CC(=O)N[C@H]1CCCN(C2CCN(c3ccc(F)c(F)c3)CC2)C1 | -8 | 1.54
85 | Cc1ccc(N[C@@](C)(C(=O)N(C)Cc2cscn2)c2ccccc2)cc1 | -5 | 0.61
